Results published in PubChem BioAssay AID686978 (National Center for Advancing Translational Sciences (NCATS), 2013).
The whole screen tested about 420,000 compounds, of which about 64,000 (15%) were called active. Inconclusive means that the source gave no clear call. Such entries were picked first, then a sample of the others. The call rests on the fitted dose curve; in most records, active means well fitted inhibition curve with a large enough effect; inconclusive means small, poorly fitted or top-dose-only effect; inactive means flat fitted curve, though single readings scatter. Potencies of inconclusive entries are left out as doubtful fits.

Test: qHTS for Inhibitors of human tyrosyl-DNA phosphodiesterase 1 (TDP1): qHTS in cells in absence of CPT; further: nearly all actives have a fitted effect of over 55% in size
Settings: DT40 Tdp1-/- hTDP1 cells, no CPT, ATP luminescence, 48 h; activity change, negative = growth inhibition: at 46.2 µM (top of the series) unless noted
Outline: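 Readout: luminescence from CellTiter-Glo after 30 min in the dark at RT. Cells: DT40 Tdp1-/- with stable hTDP1, 400/well. Exposure: compounds alone, ≥48 hr, 37 °C.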
On the % scale 0 is the no-effect control and ±100 the full control effect; potency means the concentration at half of the fitted maximal effect; tags describe the fitted curve by direction and shape.

| Compound | activity change, negative = growth inhibition | Potency |
| --- | --- | --- |
| Clc1cccc(-c2nnc(CN3CCN(c4ccccn4)CC3)o2)c1 | inactive: -25.8% | – |
| Cc1ccccc1N1CCN(CCC(=O)Nc2ccc(F)cc2)CC1 | – | inconclusive [inhibitor, single point] |
| NS(=O)(=O)c1ccc(NC(=S)NCc2ccc3c(c2)OCO3)cc1 | – | inconclusive [inhibitor, single point] |
| O=C(/C=C/c1ccco1)Nc1ccc(CN2CCOCC2)cc1 | inactive: -3.32% | – |
| Cn1c2c(c3cc([N+](=O)[O-])ccc31)CCCC2 | inactive: -20.1% | – |
| O=C(NC1CC1)c1ccc(CSCc2ccccc2Cl)o1 | – | inconclusive [inhibitor, single point] |
| C=CCn1c(SCC(=O)NC(=O)c2cccc([N+](=O)[O-])c2)nnc1-c1ccccc1F | inactive: -10.9% | – |
| Cc1cccc(C)c1OCCCCN1CCNCC1 | inactive: -21.4% | – |
| Cc1nn(-c2ccccc2)c2c1C1(C(=O)N(C)c3ccccc31)C(C#N)=C(N)O2 (configuration not stated) | – | inconclusive [inhibitor, single point] |
| O=C(Nc1ncc(Cc2cccc(Cl)c2)s1)C1=NCCN1 | – | inconclusive [inhibitor, partial curve] |
| CCOC(=O)c1sc(NC(=O)CN2C(=O)C3CC=CCC3C2=O)nc1C (configuration not stated) | inactive: 2.65% | – |
| O=[N+]([O-])c1ccc(CS(=O)Cc2ccccc2)cc1 (configuration not stated) | inactive: 4.24% | – |
| CC1(C(=O)NS(=O)(=O)c2ccc(C#N)cc2)CCN1C(=O)CC1CCCC1 (configuration not stated) | inactive: 11.1% | – |
| Nc1nnc(SCC(=O)NNC(=O)c2ccc(F)cc2)s1 | inactive: -1.94% | – |
| NC(=NCCc1c[nH]c2ccccc12)NC(=O)c1ccc(Cl)cc1 | inactive: -16.6% | – |
| CCN(CC)S(=O)(=O)c1ccc2c(c1)N(CC(=O)N1CCN(c3cc(Cl)ccc3C)CC1)C(=O)CO2 | – | inconclusive [inhibitor, single point] |
| CCc1ccc(N2CN(Cc3ccco3)CNC2=S)cc1 | – | inconclusive [inhibitor, single point] |
| O=C1c2ccccc2C(c2nnnn2Cc2ccccc2)N1CCc1ccc(O)cc1 (configuration not stated) | inactive: -22.8% | – |
| COc1cc2c(cc1OC)CN(C(=O)C1CCCN1S(=O)(=O)c1ccc(C)cc1)CC2 (configuration not stated) | inconclusive: -30.3% [inhibitor] | – |
| Oc1cccc2c(NC(=S)Nc3ccc(SC(F)F)cc3)cccc12 | – | inconclusive [inhibitor, single point] |
| COc1ccc(/C=C2\SC(=S)N(CCC(=O)Nc3ccccc3C(=O)O)C2=O)cc1 | inactive: 4.57% | – |
| O=C1Nc2ccc(S(=O)(=O)NCCC3=CCCCC3)c3cccc1c23 | – | inconclusive [inhibitor, partial curve] |
| CCN(CC)c1ccc2c(C)c(Cl)c(=O)oc2c1 | – | inconclusive [inhibitor, single point] |
| O=c1[nH]c(-c2ccc(Cl)cc2)cs1 | inactive: -23.9% | – |

| Compound | activity change, negative = growth inhibition | Potency |
| --- | --- | --- |
| CCC(=O)Nc1ccc2c(c1)OC[C@@H](C)NC[C@@H](C)[C@@H](OC)CN(C)C2=O | inactive: 7.51% | – |
| COc1ccc(/C=C/C(=O)OC(C)CN2CCOCC2)cc1 (configuration not stated) | inactive: -18.5% | – |
| O=C(Nc1ccccc1C(=O)NCCc1ccccc1)c1ccco1 | – | inconclusive [inhibitor, single point] |
| O=C1c2ccccc2C(=O)N1N(c1ccccc1)c1ccccc1 | inactive: 2.54% | – |
| O=S1(=O)[C@H]2CC3O[C@]2(C[C@@H]3c2ccc(F)cc2)CN1Cc1ccc(Cl)cc1 | – | inconclusive [inhibitor, single point] |
| COc1ccc(OC)c(/C=N/NC(=O)C(=O)N2CCCC2)c1 | – | inconclusive [inhibitor, partial curve] |
| COc1ccc(N(C(=O)C2COc3ccccc3O2)C(C(=O)NC2CCCCC2)c2ccccc2)cc1OC (configuration not stated) | – | inconclusive [inhibitor, partial curve, poor fit] |
| Cc1cc(=O)[nH]c(/N=C(\N)Nc2ccc(SC(F)F)cc2)n1 | – | inconclusive [inhibitor, single point] |
| CCCCCn1c(=O)[nH]c2cc(C(=O)N3CCN(c4ccc(C(C)=O)cc4)CC3)ccc2c1=O | – | active: 14.6 µM |
| CC(=O)Nc1nonc1-c1nnc(SCC(=O)Nc2ccccc2Cl)n1C | inactive: -24.8% | – |
| COc1cc(NC(=O)c2cc(-c3ccccc3O)no2)cc(OC)c1OC | – | active: 1.64 µM |
| O=C(NC1CC1)C1CC(=O)N(c2cccc(Cl)c2Cl)C1 (configuration not stated) | inactive: 0.868% | – |
| Cc1ccc(C)c(Cn2c3ccccc3c3cnn(CC(=O)NCCCN4CCCCC4)c(=O)c32)c1 | – | active: 16.4 µM |
| Cc1ccc(N(C(=O)c2snc(C(N)=O)c2N)C(C(=O)NCC2CCCO2)c2ccc3ncccc3c2)cc1 (configuration not stated) | inactive: -27.7% | – |
| Cc1ccc(S(=O)(=O)N(CC(=O)Nc2ccc(Cl)c([N+](=O)[O-])c2)C2CCCCC2)cc1 | – | inconclusive [inhibitor, single point] |
| O=C(NCCC1=CCCCC1)c1c(O)nc2sccn2c1=O | – | inconclusive [inhibitor, single point] |
| CCOc1ccc(CNC(=O)C2CCN(C3=NS(=O)(=O)C(c4ccc(C)cc4)=C3CC)CC2)cc1 | – | inconclusive [inhibitor, single point] |
| CC(=O)N1N=C(c2ccccc2)CC1c1ccccc1[N+](=O)[O-] (configuration not stated) | – | inconclusive [inhibitor, single point] |
| FC(F)(F)c1cc(CN2CC3(CCNCC3)C2)cc(C(F)(F)F)c1 | – | active: 7.31 µM |
| CCCc1cc(=O)oc2c(C)c(OCC(=O)NCCCn3ccnc3)ccc12 | – | inconclusive [inhibitor, single point] |
| CC(=O)Nc1ccc(NC(=O)c2ccc(S(=O)(=O)N(C)c3ccccc3)cc2)cc1 | – | inconclusive [inhibitor, single point] |
| COc1cccc(COC(=O)Nc2ccccc2)c1OC | – | inconclusive [inhibitor, single point] |
| CCC(=O)Nc1nnc(S(=O)(=O)N(C)Cc2ccc(Cl)cc2)s1 | inactive: -9.83% | – |
| CCOC(=O)c1ccc(NC(=O)CN(c2ccc(C)cc2)S(=O)(=O)c2ccc(OC)cc2)cc1 | – | inconclusive [inhibitor, partial curve] |

| Compound | activity change, negative = growth inhibition | Potency |
| --- | --- | --- |
| CN(C)S(=O)(=O)c1ccc2c(c1)c(=O)c(C(=O)N1CCN(c3cccc(Cl)c3)CC1)cn2C | – | inconclusive [inhibitor, single point] |
| CCn1c(SCC(=O)NCCc2ccccc2)nnc1-c1cccs1 | inactive: -8% | – |
| O=S1(=O)c2ccccc2N(Cc2ccc(Cl)cc2F)c2ccccc21 | – | inconclusive [inhibitor, single point] |
| COc1ccc(OC)c(NC(=O)CSC2=Nc3ccccc3C3=NC(CCC(=O)NCc4ccco4)C(=O)N23)c1 (configuration not stated) | – | inconclusive [inhibitor, partial curve, poor fit] |
| O=c1c(-c2cccc(F)c2)nc2cncnc2n1Cc1ccc(F)cc1 | inactive: -2.18% | – |
| CCOc1nnc(C)c2c(C)n(-c3cccc(Cl)c3)nc12 | – | inconclusive [inhibitor, partial curve, poor fit] |
| CCOC(=O)N1CCN(c2nc(-c3ccco3)cc(C(F)(F)F)n2)CC1 | – | inconclusive [inhibitor, partial curve] |
| CCOc1ccccc1NC(=O)CSC1=Nc2ccccc2C2=NC(CC(=O)NC3CCCCC3)C(=O)N12 (configuration not stated) | – | active: 20.6 µM |
| CCCOc1ccc(C(=O)N2CCCc3ccccc32)cc1 | inactive: -5.6% | – |
| O=C(N/N=C/c1cc(Cl)ccc1O)C(=O)Nc1ccccc1OC(F)(F)C(F)F | – | active: 1.84 µM |
| COc1ccc(CCNc2cc(C)nc3c(-c4ccccc4)c(C)nn23)cc1OC | – | active: 16.4 µM |
| CCC1(CC)Cc2ccccc2-c2nc(CCl)[nH]c(=O)c21 | – | inconclusive [inhibitor, single point] |
| CCC(Oc1ccccc1)C(=O)Nc1ccccc1C(=O)N1CCCCC1 (configuration not stated) | – | inconclusive [inhibitor, single point] |
| Cc1cc(C(=O)CSc2n[nH]c(N)n2)c(C)n1-c1ccc2c(c1)OCO2 | – | active: 23.1 µM |
| COc1ccc(S(=O)(=O)N2Cc3ccccc3CC2C(=O)Nc2nccs2)cc1 (configuration not stated) | – | inconclusive [inhibitor, single point] |
| COc1cccc(C(=O)N2N=C(c3ccccn3)CC2(O)C(F)(F)F)c1 (configuration not stated) | – | active: 4.61 µM |
| OC(CN1CCN(Cc2ccc3c(c2)OCO3)CC1)c1c[nH]c2ccccc12 (configuration not stated) | – | inconclusive [inhibitor, single point] |
| NC(=O)C1CCN(C2=C(NS(=O)(=O)c3ccc(Cl)cc3)C(=O)c3ccccc3C2=O)CC1 | – | inconclusive [inhibitor, single point] |
| CCc1nc2c(OCc3ccc(F)c(F)c3)cccn2c1N(C)C(=O)c1ccco1 | – | inconclusive [inhibitor, single point] |
| Cc1cc(F)ccc1C(O)c1ncc(-c2cccc3ccccc23)[nH]1 (configuration not stated) | – | inconclusive [inhibitor, single point] |
| COc1ccc(C(=O)ON=C2CCN(C)CC2)cc1 | inactive: 2.07% | – |
| CC1=CC(=C(C#N)c2nc3ccccc3s2)C=C(C)N1CC1CCCO1 (configuration not stated) | – | inconclusive [inhibitor, single point] |
| CCOC(=O)N1CCC(NC(=O)c2cc(C(=O)Nc3cccc(C(F)(F)F)c3)ccc2CO)CC1 | – | active: 3.26 µM |
| O=[N+]([O-])c1ccc(S(=O)(=O)N2CCC3(CC2)OCCN3S(=O)(=O)c2cccs2)cc1 | – | inconclusive [inhibitor, single point] |
